# Results taken from PubChem BioAssay AID624417 (National Center for Advancing Translational Sciences (NCATS), 2012).
# The campaign covered roughly 410,000 compounds. About 6,400 (1.6%) were called active. The inconclusive results got no clear call from the source; some entries with a clear call stand among them for comparison. Calls come from the whole dose curve; as a rule, active = well fitted inhibition curve with a large enough effect; inconclusive = small, poorly fitted or top-dose-only effect; inactive = no such curve, though single readings can be large or run the other way. Potencies of inconclusive entries are left out as doubtful fits.
# Target: Glucagon-like peptide 1 receptor (Homo sapiens) (UniProt P43220)
# Chain of UniProt P43220 (P43220 whole entry, looked up): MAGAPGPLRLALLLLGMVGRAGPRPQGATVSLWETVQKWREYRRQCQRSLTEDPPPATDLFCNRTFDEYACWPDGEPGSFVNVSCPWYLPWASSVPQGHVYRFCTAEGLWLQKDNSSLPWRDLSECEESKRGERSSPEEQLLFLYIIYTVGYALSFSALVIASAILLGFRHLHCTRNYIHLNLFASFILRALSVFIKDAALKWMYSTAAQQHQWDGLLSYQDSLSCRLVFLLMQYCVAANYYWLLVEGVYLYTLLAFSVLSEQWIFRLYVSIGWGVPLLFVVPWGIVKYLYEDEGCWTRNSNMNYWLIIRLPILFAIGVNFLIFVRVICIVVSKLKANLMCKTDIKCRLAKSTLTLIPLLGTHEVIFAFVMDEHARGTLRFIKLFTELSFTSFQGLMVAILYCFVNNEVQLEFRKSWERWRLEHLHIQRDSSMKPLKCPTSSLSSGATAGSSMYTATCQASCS
# Experiment: qHTS of GLP-1 Receptor Inverse Agonists (Inhibition Mode); note: nearly all actives have a fitted effect of over 55% in size
# Conditions: HEK293 GLP-1R CRE-luciferase, luminescence, 24 h, GLP-1R form is constitutively active; activity change, negative = inhibition: at 38.3 µM (top of the series) unless noted
# Outline: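 Seeding at 200 cells/uL, 12 h culture, 24 hr compound treatment, then luciferase reagent and a luminescence read; cells are HEK293 stably expressing a constitutively active GLP-1R plus cAMP-responsive luciferase.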
# % is set by controls: 0 for no effect and ±100 for the full control effect; potency is the fitted concentration of half-maximal effect; tags give direction and shape of the fitted curve.
Structure (SMILES),Potency,"activity change, negative = inhibition"
CCC(=O)OCc1c(C(F)(F)F)nn(C)c1Sc1ccc(Cl)cc1,"inconclusive [inhibitor, single point]",–
Cc1cc(C)n(-c2nc3c(c(=O)[nH]c(=O)n3C)n2CC(O)COc2ccc(Cl)cc2Cl)n1 (stereo not drawn),"inconclusive [inhibitor, partial curve, poor fit]",–
CC(C)C[C@H]1CN([C@@H](Cc2ccc(O)cc2)CN2CCC[C@@H]2CN2C(=S)NC[C@@H]2Cc2ccccc2)C(=S)N1CC1CCCCCC1,"inconclusive [inhibitor, partial curve, poor fit]",–
CC(C)=CC1C(C(=O)Nc2ccc(S(=O)(=O)N3CCOCC3)cc2)C1(C)C (stereo not drawn),"inconclusive [inhibitor, partial curve, poor fit]",–
COc1cnc(-c2ccccn2)nc1Sc1ccccc1Cl,"inconclusive [inhibitor, full curve, poor fit]",–
CCOc1ccccc1N(C)C(=O)c1cc2c(s1)-c1ccccc1OC2,"inconclusive [inhibitor, single point]",–
O=C(NC(=S)N(Cc1ccccc1)Cc1ccccc1)c1ccccc1F,"inconclusive [inhibitor, single point]",–
C=C(C)c1cccc(C(C)(C)NC(=O)N2CCN(c3ccc(OC)cc3)CC2)c1,"inconclusive [inhibitor, partial curve, poor fit]",–
COc1ccc(NC(=O)CCN2CCN(S(=O)(=O)c3ccc(Br)cc3)CC2)cc1,"inconclusive [inhibitor, single point]",–
CN(C)c1cccc(C(=O)N(C)C2CCCN(Cc3ccccc3F)C2)c1 (stereo not drawn),"inconclusive [inhibitor, partial curve, poor fit]",–
N#CC(C(=O)Nc1ccccc1)=C1Nc2ccccc2N1,–,inactive: -17.9%
CCOc1ccc2nc(SCC3CC3(Cl)Cl)[nH]c2c1 (stereo not drawn),"inconclusive [inhibitor, partial curve]",–
Cc1ccc2c(c1)C(c1ccc([N+](=O)[O-])cc1)=NNC(c1ccc(Br)cc1)=N2,"inconclusive [inhibitor, single point]",–
COc1ccc(C)cc1NC(=O)C(NCC(O)c1ccccc1)c1ccccc1 (stereo not drawn),"inconclusive [inhibitor, partial curve, poor fit]",–
O=C(NCc1ccc(Cl)cc1)C1CC(O)CN1S(=O)(=O)c1ccc(Cl)cc1 (stereo not drawn),"inconclusive [inhibitor, partial curve, poor fit]",–
COc1ccc(NC(=O)COc2cc(O)c3c(c2)OC(C)(C)CC3=O)cc1,"inconclusive [inhibitor, single point]",–
Cc1ccccc1C(=O)Nc1cc2c(cc1N1CCCCC1)n(C)c(=O)n2C,–,inactive: 28.6%
CCN(CC(=O)Nc1ccc(NC(C)=O)cc1)C(=O)c1ccc(COc2ccc(C(C)(C)C)cc2)cc1,"inconclusive [inhibitor, partial curve, poor fit]",–
Cc1cc(C)c2nc(N3CCCC(C(=O)NCc4ccccc4F)C3)sc2c1 (stereo not drawn),–,inactive: 27.9%
Cc1ccc(NC(=O)c2ccn(C)n2)c(Br)c1,"inconclusive [inhibitor, single point]",–
Cc1ccc(NC2CCCN(C(=O)c3cnsn3)C2)cc1C (stereo not drawn),"inconclusive [inhibitor, single point]",–

Structure (SMILES),Potency,"activity change, negative = inhibition"
O=C(CNc1cccc(Br)c1)Nc1ccc(S(=O)(=O)N2CCCCC2)cc1,"inconclusive [inhibitor, single point]",–
COc1cc(/C=C/C(=O)OCC(=O)N2CCCc3ccccc32)ccc1OC(F)F,"inconclusive [inhibitor, single point]",–
COc1ccc(N(C)S(=O)(=O)c2cccc(C(=O)OCC(=O)N(C)c3ccccc3)c2)cc1,"inconclusive [inhibitor, partial curve, poor fit]",–
COc1ccc(CNC(=O)CCc2ccc(S(=O)(=O)N3CCCCCC3)cc2)cc1,–,inactive: -25.2%
COc1ccc(C)cc1NC(=O)C(=O)NCC(c1cccnc1)N1CCN(c2ccccc2F)CC1 (stereo not drawn),"inconclusive [inhibitor, single point]",–
O=C(NCc1cccc(Cl)c1)c1cc2c(s1)-c1ccccc1SC2,–,inactive: -25.3%
CCc1ccc(S(=O)(=O)Nc2ccc(N3CCN(C)CC3)cc2)cc1,"inconclusive [inhibitor, single point]",–
O=C(Cn1c(=O)n(-c2ccc(Cl)cc2)c(=O)c2c3c(sc21)CCCCC3)Nc1cccc(Cl)c1,–,inactive: -14.7%
O=C(c1cc2nc(-c3cccs3)cc(C(F)(F)F)n2n1)N1CCCc2ccccc21,"inconclusive [inhibitor, partial curve, poor fit]",–
COc1ccc(N2CCN(C(=O)Cn3c(=O)c4cccn4c4cccnc43)CC2)cc1,–,inactive: -3.96%
CCC1CCCN1Cn1cnc2c([nH]c3ccccc32)c1=O (stereo not drawn),–,inactive: 17.2%
COc1ccc(CC(=O)Nc2cccc(S(=O)(=O)N3CCCCC3)c2)cc1,"inconclusive [inhibitor, single point]",–
Cc1ccc2cccc(NC(=O)c3cccc4c(Br)cccc34)c2n1,–,inactive: 1.91%
Cc1cc(C)cc(CSc2ccc(S(=O)(=O)N3CCCC3)cn2)c1,"inconclusive [inhibitor, single point]",–
Cc1ccc(C(C)(C)C)cc1S(=O)(=O)Nc1cccc(S(=O)(=O)NC2=NCCC2)c1,"inconclusive [inhibitor, partial curve, poor fit]",–
NC(=O)c1ccc(Nc2nnc(-c3ccc(O)cc3)c3ccccc23)cc1,–,inactive: -0.0269% [at 7.66 µM]
COc1cccc(Nc2cc(C)nc3ccccc23)c1,"inconclusive [inhibitor, partial curve, poor fit]",–
CC(=O)NNC(=O)CSc1nnc(-c2ccccc2)c(-c2ccccc2)n1,–,inactive: 5.07%
O=C(C1=C[C@H](c2csc3ccccc23)C[C@H](OCCCCO)O1)N1CCN(Cc2ccc3c(c2)OCO3)CC1,"inconclusive [inhibitor, single point]",–
CCCC/C=C/[C@H](c1ccccc1)[C@H](CO)Cc1cccnc1,"inconclusive [inhibitor, partial curve, poor fit]",–
Cc1cc2nc(C3CCCCC3)c(Cc3ccsc3)n2c(C)c1Br,"inconclusive [inhibitor, partial curve, poor fit]",–

Structure (SMILES),Potency,"activity change, negative = inhibition"
COc1cc(C2SCCS2)cc(Br)c1Oc1ncccc1[N+](=O)[O-],"inconclusive [inhibitor, partial curve, poor fit]",–
Cc1csc2nc(O)c(C(=O)NC3CCCCC3)c(=O)n12,"inconclusive [inhibitor, full curve, poor fit]",–
Cc1ccc2nsnc2c1NC(=O)c1ccc(-c2cc(Cl)ccc2Cl)o1,"inconclusive [inhibitor, partial curve]",–
Cc1cc2c(cc1C)-n1nnnc1C(N(Cc1ccccc1)Cc1ccccc1)C(=O)N2 (stereo not drawn),–,inactive: -12.7%
CCOc1ccc(NC(=O)CSc2nnc(C34CC5CC(CC(C5)C3)C4)n2C)cc1,"inconclusive [inhibitor, full curve, poor fit]",–
O=C(Nc1ccccc1)c1ccc(COc2ccccc2)cc1,–,inactive: 7.53%
Cc1ccc(Cc2c(-c3ccc(F)cc3)nc3cc(C)ccn23)cc1,"inconclusive [inhibitor, single point]",–
CCN(CC)CC(=O)Nc1ccccc1SCC(=O)Nc1ccsc1C(=O)OC,"inconclusive [inhibitor, partial curve, poor fit]",–
Brc1ccccc1-n1nnc(-c2nccs2)n1,–,inactive: -7.37%
CC(C)(C)c1cccc(C2(O)C(=O)c3ccccc3C2=O)c1O,"inconclusive [inhibitor, single point]",–
COc1ccc(-c2csc(NC(=O)c3cccc(S(=O)(=O)N4CCN(C)CC4)c3)n2)cc1,"inconclusive [inhibitor, single point]",–
COc1cc(CNS(=O)(=O)c2ccc3c(c2)CC(C)N3C(C)=O)cc(OC)c1OC (stereo not drawn),"inconclusive [inhibitor, partial curve, poor fit]",–
Cc1cc(C)cc(N2CCn3c2nc2c3c(=O)n(C/C=C/c3ccccc3)c(=O)n2C)c1,–,inactive: 1.22%
COc1ccc(N(C(=O)c2ccc(Cl)cc2)C2=CC3CCC(C2)N3C)cc1 (stereo not drawn),"inconclusive [inhibitor, partial curve, poor fit]",–
CCN(C(=O)Cn1c(=O)oc2cc(S(=O)(=O)N3CCCCC3)ccc21)c1ccccc1,–,inactive: 14.6%
O=C(COC(=O)C1CC1)Nc1ccc(OC(F)F)cc1,–,inactive: 2.07%
Cc1nc(-c2ccc(F)cc2)c(CC(=O)N2CCN(S(=O)(=O)c3cccc(Cl)c3)CC2)s1,"inconclusive [inhibitor, partial curve, poor fit]",–
Cc1ccc(Cl)cc1N1CCN(C(=O)Cn2ncn3cccc3c2=O)CC1,"inconclusive [inhibitor, single point]",–
CCN1CCN(c2ccc(NC(=O)CCc3c(C)nc4c(-c5ccc(F)cc5)c(C)nn4c3C)cc2)CC1,"inconclusive [inhibitor, partial curve, poor fit]",–
Cc1ccc(C(=O)N/N=C\c2cc3c(cc2Br)OCO3)s1,–,inactive: 3.58%
CN(CCOc1ccc(Cl)cc1)C(=O)C1CCN(C(=O)c2ccc(Cl)cc2)CC1,"inconclusive [inhibitor, partial curve, poor fit]",–
